A short description of data set [1]: physchem. The conditions noted are these: water, thermodynamic from solid.
The conditions of data set [2]: about 25 degrees C.

≈ marks a conversion by molar mass, not a printed value. Where “and” joins values, the source holds several entries; their conditions need not be identical. Equal entries are not always repeated. Structures can show the parent of a compound that is named as a salt. Where two headings read alike, the source gives them in different places.

By Solubility is commonly meant the concentration that dissolves in the medium under given conditions. Low readings indicate little dissolved substance, high ones much dissolved substance.

Turning to `CN1c2ccccc2C(NCCCCCCC(=O)O)c2ccc(Cl)cc2S1(=O)=O` (stereo not drawn) [tianeptine hemisulfate monohydrate, 7-[(3-chloro-6,11-dihydro-6-methyldibenzo[c,f][1,2]thiazepin-11-yl)amino]heptanoic acid S,S-dioxide hemisulfate monohydrate], the Solubility in data set [1] was < 1000 µg/mL; the Solubility (pH 1) turned out to be 330 µg/mL; the Solubility (pH 2) was determined as 200 µg/mL; the Solubility (pH 3) was found to be 250 µg/mL; the Solubility (pH 5) worked out at 120 µg/mL; the Solubility (pH 6) is 100 µg/mL. The Solubility reads like this: (pH 7) 100 µg/mL; (pH 8) 360 µg/mL; (pH 10) 3610 µg/mL. Besides, the “hygroscopicity (DVS analysis)” value in data set [2] (about 10% to about 90% relative humidity) is “non-hygroscopic”. Besides, the “Equilibrium Form” value runs as follows: (pH 1) “sulfate”; (pH 2) “sulfate”; (pH 3) “sulfate”; (pH 5) “form II”. Further, the “Final pH” value (pH 1, hemisulfate monohydrate) worked out at 1.4; the “Final pH” value (pH 2, hemisulfate monohydrate) was 2.4; the “Final pH” value (pH 3, hemisulfate monohydrate) is on record as 3.0; the “Final pH” value (pH 5, hemisulfate monohydrate) was found to be 4.7; the “Final pH” value (pH 6, hemisulfate monohydrate) is reported as 5.5; the “Final pH” value (pH 7, hemisulfate monohydrate) came out at 6.6. Moreover, the “Final pH” value (pH 8, hemisulfate monohydrate) is recorded as 7.6 and the “Final pH” value (pH 10, hemisulfate monohydrate) is listed as 8.7.
For `CN1c2ccccc2C(NCCCCCCC(=O)O)c2ccc(Cl)cc2S1(=O)=O` (stereo not drawn) [tianeptine hydrochloride, 7-[(3-chloro-6,11-dihydro-6-methyldibenzo[c,f][1,2]thiazepin-11-yl)amino]heptanoic acid S,S-dioxide hydrochloride], the “water absorbed by mass over the entire humidity range” value in data set [2] (about 0 to about 90 percent relative humidity) is “less than 2.5%”. Besides, the “relative humidity range in which stable (DVS analysis)” value in data set [2] (about 0 to about 90 percent relative humidity, hydrochloride) was “at least 90 % relative humidity”. The “Equilibrium Form” value was “HCl” (pH 1); “HCl” (pH 2); “form II” (pH 3); “form II” (pH 5); “form II” (pH 6); “form II” (pH 7). In addition, the “Equilibrium Form” value runs as follows: (pH 8) “form II”; (pH 10) “form II”. For the same compound, the Solubility runs as follows: (pH 1) 3150 µg/mL; (pH 2) 7470 µg/mL; (pH 3) 3810 µg/mL; (pH 5) 60 µg/mL; (pH 6) 30 µg/mL; (pH 7) 20 µg/mL. Besides, the Solubility came to 340 µg/mL (pH 8) and 2750 µg/mL (pH 10). Besides, the “Final pH” value is reported as 1.4 (pH 1, hydrochloride); 2.2 (pH 2, hydrochloride); 2.5 (pH 3, hydrochloride); 4.4 (pH 5, hydrochloride); 5.3 (pH 6, hydrochloride); 6.4 (pH 7, hydrochloride). Moreover, the “Final pH” value (pH 8, hydrochloride) is reported as 7.4 and the “Final pH” value (pH 10, hydrochloride) is listed as 8.7.
With `CN1c2ccccc2C(NCCCCCCC(=O)O)c2ccc(Cl)cc2S1(=O)=O` (stereo not drawn) [tianeptine Form II, 7-[(3-chloro-6,11-dihydro-6-methyldibenzo[c,f][1,2]thiazepin-11-yl)amino]heptanoic acid S,S-dioxide], the “Equilibrium Form” value is listed as “HCl” (pH 1); “form II” (pH 2); “form II” (pH 3); “form II” (pH 5); “form II” (pH 6); “form II” (pH 7). Further, the “Equilibrium Form” value runs as follows: (pH 8) “form II”; (pH 10) “form II”. Further, the “Final pH” value is 1.17 (pH 1); 2.47 (pH 2); 3.08 (pH 3); 5.06 (pH 5); 6.01 (pH 6); 7.08 (pH 7). Further, the “Final pH” value was 7.98 (pH 8) and 9.61 (pH 10). The same compound came in with a Solubility (pH 1) of 1360 µg/mL (≈ 3110 µM); a Solubility (pH 2) of 2660 µg/mL (≈ 6090 µM); a Solubility (pH 3) of 830 µg/mL (≈ 1900 µM); a Solubility (pH 5) of 40 µg/mL (≈ 91.5 µM); a Solubility (pH 6) of 40 µg/mL (≈ 91.5 µM); a Solubility (pH 7) of 60 µg/mL (≈ 137 µM). Also, the Solubility stood at 400 µg/mL (≈ 915 µM) (pH 8) and 9720 µg/mL (≈ 22200 µM) (pH 10).
For `CN1c2ccccc2C(NCCCCCCC(=O)O)c2ccc(Cl)cc2S1(=O)=O` (stereo not drawn) [tianeptine sodium], in data set [2], the “relative humidity at which deliquescence began” value is listed as “about 60 % relative humidity”. Besides, in data set [2] (90% relative humidity), the “water absorbed by mass at 90% relative humidity” value is recorded as “about 38%”. The “Equilibrium Form” value is, setting by setting: (pH 2) “form I & II”; (pH 5) “form I & II”; (pH 6) “form II”; (pH 7) “form II”; (pH 8) “form II”. Besides, the “Final pH” value was 9.250 and 9.17 (pH 2); 8.45 (pH 5); 7.75 (pH 6); 9.40 (pH 7); 8.92 (pH 8); 10.20 (pH 10). The Solubility came out at 1500 µg/mL (pH 5); 270 µg/mL (pH 6); 39530 µg/mL (pH 7); 85430 µg/mL (pH 8); 43560 µg/mL (pH 10).

Source of the values: patent US8198268B2, “Tianeptine sulfate salt forms and methods of making and using the same” (Janssen Biotech, Inc., priority 2008, dated 2012).
